Reference: paper PMC12350791
Certain results were filed several times, with different values. Only these are listed. An entry can have further records. Some protein pairs were linked at several places, one record each.

Key:
Assay in all cases: cross-linking mass spectrometry
Settings in all cases: DSBSO, in cells or nuclear extract, not told apart
[1] = biological target: CPSF2 (UniProt Q9P2I0)
[2] = biological target: EBNA1BP2 (UniProt Q99848)
[3] = biological target: EEF1D (UniProt P29692)
[4] = biological target: EEF1G (UniProt P26641)
[5] = biological target: ERLIN2 (UniProt O94905)
[6] = biological target: FLOT2 (UniProt Q14254)
[7] = biological target: HNRNPAB (UniProt Q99729)
[8] = biological target: HNRNPD (UniProt Q14103)
[9] = biological target: HNRNPM (UniProt P52272)
[10] = biological target: KIF21A (UniProt Q7Z4S6)
[11] = biological target: LBR (UniProt Q14739)
[12] = biological target: LMNB1 (UniProt P20700)
[13] = biological target: MCM5 (UniProt P33992)
[14] = biological target: MCM6 (UniProt Q14566)
[15] = biological target: MCM7 (UniProt P33993)
[16] = biological target: NDUFA5 (UniProt Q16718)
[17] = biological target: NDUFA7 (UniProt O95182)
[18] = biological target: NDUFAF4 (UniProt Q9P032)
[19] = biological target: NUP54 (UniProt Q7Z3B4)
[20] = biological target: NUP58 (UniProt Q9BVL2)
UniProt Q9BVL2, sequence (Q9BVL2 whole entry): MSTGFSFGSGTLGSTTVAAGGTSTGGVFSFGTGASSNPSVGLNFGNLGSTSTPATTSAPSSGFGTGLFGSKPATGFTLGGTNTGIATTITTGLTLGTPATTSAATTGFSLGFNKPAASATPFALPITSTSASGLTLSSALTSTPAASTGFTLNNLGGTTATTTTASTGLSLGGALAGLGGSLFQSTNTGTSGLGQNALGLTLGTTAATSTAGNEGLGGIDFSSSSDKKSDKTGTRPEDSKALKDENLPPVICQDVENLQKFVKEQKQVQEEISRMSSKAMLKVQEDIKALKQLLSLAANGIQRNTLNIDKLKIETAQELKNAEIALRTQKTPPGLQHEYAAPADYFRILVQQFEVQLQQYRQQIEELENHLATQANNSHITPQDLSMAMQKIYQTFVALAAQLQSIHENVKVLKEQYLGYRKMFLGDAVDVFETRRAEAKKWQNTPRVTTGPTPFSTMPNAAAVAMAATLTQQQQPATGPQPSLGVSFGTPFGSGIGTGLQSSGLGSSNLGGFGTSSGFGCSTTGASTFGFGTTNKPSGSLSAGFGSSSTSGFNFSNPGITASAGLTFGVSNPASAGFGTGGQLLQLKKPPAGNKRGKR

[21] = biological target: NUP88 (UniProt Q99567)
[22] = biological target: PHB2 (UniProt Q99623)
[23] = biological target: PHF5A (UniProt Q7RTV0)
[24] = biological target: SF3B5 (UniProt Q9BWJ5)
[25] = biological target: PSMD5 (UniProt Q16401)
[26] = biological target: SF3A1 (UniProt Q15459)
[27] = biological target: SF3A3 (UniProt Q12874)
[28] = biological target: SMC4 (UniProt Q9NTJ3)
[29] = biological target: SNRNP40 (UniProt Q96DI7)
[30] = biological target: SNRPD3 (UniProt P62318)
[31] = biological target: SPCS1 (UniProt Q9Y6A9)
[32] = biological target: SPTAN1 (UniProt Q13813)
[33] = biological target: SRP9 (UniProt P49458)
UniProt P49458, sequence (P49458 whole entry): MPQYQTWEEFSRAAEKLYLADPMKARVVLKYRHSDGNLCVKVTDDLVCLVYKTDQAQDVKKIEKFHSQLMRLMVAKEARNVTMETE

[34] = biological target: STIP1 (UniProt P31948)
[35] = biological target: THOC1 (UniProt Q96FV9)
[36] = biological target: THRAP3 (UniProt Q9Y2W1)
[37] = biological target: TMED5 (UniProt Q9Y3A6)
[38] = biological target: XRCC5 (UniProt P13010)
[39] = biological target: YWHAZ (UniProt P63104)
UniProt P63104, sequence (P63104 whole entry): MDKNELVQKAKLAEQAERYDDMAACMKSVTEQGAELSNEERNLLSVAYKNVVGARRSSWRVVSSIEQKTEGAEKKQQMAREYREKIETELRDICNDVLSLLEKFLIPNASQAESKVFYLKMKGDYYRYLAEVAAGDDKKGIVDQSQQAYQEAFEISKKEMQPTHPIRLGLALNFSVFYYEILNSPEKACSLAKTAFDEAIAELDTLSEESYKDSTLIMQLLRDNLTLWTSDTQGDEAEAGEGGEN

HNRNPD, Q14103, sequence (Q14103 whole entry): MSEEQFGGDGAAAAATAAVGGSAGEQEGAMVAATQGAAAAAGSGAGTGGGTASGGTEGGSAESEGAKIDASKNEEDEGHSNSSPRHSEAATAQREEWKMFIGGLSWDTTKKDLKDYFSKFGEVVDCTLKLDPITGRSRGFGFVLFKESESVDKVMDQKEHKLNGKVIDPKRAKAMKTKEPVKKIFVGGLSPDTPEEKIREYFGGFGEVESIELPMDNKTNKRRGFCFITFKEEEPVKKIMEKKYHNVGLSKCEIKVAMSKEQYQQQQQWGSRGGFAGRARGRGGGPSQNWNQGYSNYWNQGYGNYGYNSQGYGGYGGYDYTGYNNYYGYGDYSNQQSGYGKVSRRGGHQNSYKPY
NDUFS3, sequence (O75489 whole entry): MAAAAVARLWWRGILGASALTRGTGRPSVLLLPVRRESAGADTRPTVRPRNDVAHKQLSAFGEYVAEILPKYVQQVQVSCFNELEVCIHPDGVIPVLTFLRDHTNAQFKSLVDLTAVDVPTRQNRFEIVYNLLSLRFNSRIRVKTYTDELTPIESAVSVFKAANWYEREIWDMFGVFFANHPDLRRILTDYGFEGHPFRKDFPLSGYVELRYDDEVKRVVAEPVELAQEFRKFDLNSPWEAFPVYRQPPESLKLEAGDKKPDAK
SNRPA1, sequence (P09661 whole entry): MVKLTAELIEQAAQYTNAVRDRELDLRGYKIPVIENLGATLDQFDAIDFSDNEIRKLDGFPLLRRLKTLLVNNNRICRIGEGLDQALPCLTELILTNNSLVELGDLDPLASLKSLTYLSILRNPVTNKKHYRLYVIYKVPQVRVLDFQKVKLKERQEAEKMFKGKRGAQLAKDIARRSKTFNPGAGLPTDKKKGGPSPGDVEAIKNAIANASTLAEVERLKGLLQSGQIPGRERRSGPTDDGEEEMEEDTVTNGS
SNRPB2, sequence (P08579 whole entry): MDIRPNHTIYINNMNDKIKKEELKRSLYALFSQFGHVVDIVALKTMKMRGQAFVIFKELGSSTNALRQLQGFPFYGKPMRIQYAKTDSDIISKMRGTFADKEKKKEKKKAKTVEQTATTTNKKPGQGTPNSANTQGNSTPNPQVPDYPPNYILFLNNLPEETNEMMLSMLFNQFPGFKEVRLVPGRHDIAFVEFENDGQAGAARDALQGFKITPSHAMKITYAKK
SMC2, sequence (O95347 whole entry): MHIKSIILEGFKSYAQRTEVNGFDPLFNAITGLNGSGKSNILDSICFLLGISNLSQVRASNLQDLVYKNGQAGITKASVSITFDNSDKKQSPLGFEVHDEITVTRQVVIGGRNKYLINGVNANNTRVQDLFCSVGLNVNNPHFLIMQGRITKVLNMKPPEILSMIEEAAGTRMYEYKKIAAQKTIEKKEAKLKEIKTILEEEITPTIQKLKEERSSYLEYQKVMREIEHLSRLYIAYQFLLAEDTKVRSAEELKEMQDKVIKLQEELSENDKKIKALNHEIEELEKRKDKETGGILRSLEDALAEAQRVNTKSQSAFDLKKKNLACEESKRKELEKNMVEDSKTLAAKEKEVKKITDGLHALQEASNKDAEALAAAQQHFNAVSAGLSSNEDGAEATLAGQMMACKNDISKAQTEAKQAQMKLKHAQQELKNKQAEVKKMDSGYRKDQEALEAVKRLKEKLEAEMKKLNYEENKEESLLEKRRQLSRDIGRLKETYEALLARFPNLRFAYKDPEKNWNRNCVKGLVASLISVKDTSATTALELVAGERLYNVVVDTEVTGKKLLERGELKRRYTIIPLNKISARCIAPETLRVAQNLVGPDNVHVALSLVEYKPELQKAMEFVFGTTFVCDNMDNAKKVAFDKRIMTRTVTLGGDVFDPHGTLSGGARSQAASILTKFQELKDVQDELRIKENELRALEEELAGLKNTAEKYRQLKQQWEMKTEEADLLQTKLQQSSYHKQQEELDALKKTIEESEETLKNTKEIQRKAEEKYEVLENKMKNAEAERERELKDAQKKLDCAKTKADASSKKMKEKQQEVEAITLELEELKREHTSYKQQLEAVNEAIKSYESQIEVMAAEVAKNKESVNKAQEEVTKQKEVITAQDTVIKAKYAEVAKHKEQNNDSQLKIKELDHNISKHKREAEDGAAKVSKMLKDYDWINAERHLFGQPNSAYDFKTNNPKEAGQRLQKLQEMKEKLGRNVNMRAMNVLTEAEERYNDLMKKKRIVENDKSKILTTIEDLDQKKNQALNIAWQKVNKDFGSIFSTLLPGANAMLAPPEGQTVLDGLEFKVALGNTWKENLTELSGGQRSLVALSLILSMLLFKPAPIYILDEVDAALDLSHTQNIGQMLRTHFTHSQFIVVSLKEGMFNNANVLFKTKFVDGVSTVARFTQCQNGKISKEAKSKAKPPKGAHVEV
XRCC6, sequence (P12956 whole entry): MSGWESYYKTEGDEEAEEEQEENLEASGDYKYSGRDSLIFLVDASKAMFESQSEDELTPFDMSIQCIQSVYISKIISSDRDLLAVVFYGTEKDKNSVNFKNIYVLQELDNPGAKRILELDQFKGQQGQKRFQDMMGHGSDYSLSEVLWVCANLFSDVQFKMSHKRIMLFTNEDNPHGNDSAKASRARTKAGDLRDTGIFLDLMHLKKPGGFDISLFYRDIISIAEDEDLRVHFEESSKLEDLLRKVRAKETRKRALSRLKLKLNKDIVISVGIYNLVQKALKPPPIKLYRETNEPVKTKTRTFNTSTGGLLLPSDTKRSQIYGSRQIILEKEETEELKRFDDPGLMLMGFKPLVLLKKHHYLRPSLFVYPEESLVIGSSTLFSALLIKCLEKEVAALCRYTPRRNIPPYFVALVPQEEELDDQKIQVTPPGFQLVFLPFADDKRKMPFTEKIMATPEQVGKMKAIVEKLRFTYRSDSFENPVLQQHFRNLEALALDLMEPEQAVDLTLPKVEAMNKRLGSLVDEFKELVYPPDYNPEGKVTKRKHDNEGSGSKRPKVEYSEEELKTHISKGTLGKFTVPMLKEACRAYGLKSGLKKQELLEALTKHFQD
HSP90AB1, sequence (P08238 whole entry): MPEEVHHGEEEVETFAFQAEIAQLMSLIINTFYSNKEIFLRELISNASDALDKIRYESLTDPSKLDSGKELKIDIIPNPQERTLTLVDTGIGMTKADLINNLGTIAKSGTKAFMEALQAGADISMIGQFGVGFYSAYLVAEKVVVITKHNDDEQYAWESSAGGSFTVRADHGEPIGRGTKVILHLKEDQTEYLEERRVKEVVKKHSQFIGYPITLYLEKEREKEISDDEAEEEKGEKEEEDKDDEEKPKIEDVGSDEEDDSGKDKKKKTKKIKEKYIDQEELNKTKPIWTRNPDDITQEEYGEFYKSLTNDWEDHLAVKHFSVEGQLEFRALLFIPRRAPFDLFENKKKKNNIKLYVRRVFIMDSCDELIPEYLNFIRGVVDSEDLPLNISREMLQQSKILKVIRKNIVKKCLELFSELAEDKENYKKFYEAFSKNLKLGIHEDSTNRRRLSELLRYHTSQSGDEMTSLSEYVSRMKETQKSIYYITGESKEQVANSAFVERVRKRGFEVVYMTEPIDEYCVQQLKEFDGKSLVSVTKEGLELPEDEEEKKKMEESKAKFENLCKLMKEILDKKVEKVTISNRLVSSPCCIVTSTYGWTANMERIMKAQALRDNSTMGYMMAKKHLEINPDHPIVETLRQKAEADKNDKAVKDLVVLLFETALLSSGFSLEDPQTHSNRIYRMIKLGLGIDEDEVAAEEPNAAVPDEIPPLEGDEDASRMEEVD
SRP14, sequence (P37108 whole entry): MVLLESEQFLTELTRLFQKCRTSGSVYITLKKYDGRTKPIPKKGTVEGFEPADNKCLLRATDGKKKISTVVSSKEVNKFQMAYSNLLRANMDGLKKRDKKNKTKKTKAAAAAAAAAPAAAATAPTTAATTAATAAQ
SPCS2, sequence (Q15005 whole entry): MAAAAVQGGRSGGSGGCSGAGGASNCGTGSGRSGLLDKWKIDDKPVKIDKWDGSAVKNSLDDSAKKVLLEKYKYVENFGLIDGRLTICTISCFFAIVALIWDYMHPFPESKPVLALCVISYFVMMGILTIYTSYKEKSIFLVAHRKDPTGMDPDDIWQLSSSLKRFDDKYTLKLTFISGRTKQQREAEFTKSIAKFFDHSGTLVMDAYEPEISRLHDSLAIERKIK

Q: Which cross-linked residues [1] does the source give for CPSF1, Q10570 here?
A: K116 - K459 and K1421 - K459

Q: BRIX1, Q8TDN6 was tested. Which cross-linked residues [2] did it give?
A: K31 - K127 and K276 - K33

Q: EEF1G, P26641 was tested. Which cross-linked residues [3] did it give?
A: K212 - K107 and K219 - K17 and K219 - K107 and K227 - K17 and K227 - K107 and K434 - K107

Q: For EEF1B2, P24534, which cross-linked residues [4] is on record?
A: K176 - K434 and K185 - K277

Q: For ERLIN1, O75477, which cross-linked residues [5] is on record?
A: K228 - K241 and K234 - K232

Q: With FLOT1, O75955 as the substance, how does the cross-linked residues [6] read?
A: K54 - K160 and K54 - K169 and K166 - K160 and K219 - K211 and K340 - K350 and K422 - K390

Q: Which cross-linked residues [7] does the source give for HNRNPD, Q14103 here?
A: K197 - K82 and K197 - K86 and K197 - K118

Q: With HNRNPU, Q00839 as the substance, how does the cross-linked residues [8] read?
A: K565 - K165 and K592 - K197

Q: HNRNPDL, O14979 was tested. Which cross-linked residues [8] did it give?
A: K142 - K197 and K197 - K197 and K302 - K251

Q: With MATR3, P43243 as the substance, how does the cross-linked residues [9] read?
A: K146 - K381 and K146 - K651

Q: Which cross-linked residues [10] does the source give for PSMD3, O43242 here?
A: K315 - K847 and K404 - K847

Q: With C1QBP, Q07021 as the substance, how does the cross-linked residues [11] read?
A: K91 - K64 and K91 - K123

Q: LMNA, P02545 was tested. Which cross-linked residues [12] did it give?
A: K144 - K157 and K171 - K181

Q: For MCM3, P25205, which cross-linked residues [13] is on record?
A: K435 - K471 and K435 - K696

Q: What does the source list for MCM4, P33991?
A: cross-linked residues [14]: K549 - K205 and K600 - K486 and K837 - K517; cross-linked residues [15]: K220 - K96 and K409 - K236 and K627 - K596

Q: For NDUFA7, O95182, which cross-linked residues [16] is on record?
A: K80 - K46 and K102 - K67

Q: Which results are given for NDUFS3, O75489?
A: cross-linked residues [17]: K56 - K80 and K56 - K93; cross-linked residues [18]: K217 - K107 and K232 - K73

Q: How did the cross-linked residues [19] turn out when NUP62, P37198 was run?
A: K435 - K428 and K498 - K482 and K498 - K489

Q: What about the cross-linked residues [20] of the same substance?
A: K371 - K288 and K371 - K291

Q: Which cross-linked residues [20] does the source give for NUP54, Q7Z3B4 here?
A: K321 - K291 and K338 - K278 and K345 - K278 and K398 - K330 and K482 - K278 and K482 - K288 and K489 - K310 and K489 - K320

Q: For NUP214, P35658, which cross-linked residues [21] is on record?
A: K726 - K592 and K800 - K663

Q: For PHB1, P35232, which cross-linked residues [22] is on record?
A: K83 - K200 and K128 - K147 and K186 - K97 and K202 - K216 and K202 - K262 and K208 - K236

Q: SF3B3, Q15393 was tested. Which cross-linked residues [23] did it give?
A: K137 - K13 and K137 - K95

Q: What about the cross-linked residues [24] of the same substance?
A: K109 - K17 and K137 - K17

Q: With PSMC2, P35998 as the substance, how does the cross-linked residues [25] read?
A: K422 - K147 and K422 - K461

Q: How did the cross-linked residues [26] turn out when SF3A3, Q12874 was run?
A: K69 - K223 and K201 - K251 and K219 - K55 and K390 - K55

Q: With SNRPA1, P09661 as the substance, how does the cross-linked residues [27] read?
A: K179 - K69 and K191 - K69 and K221 - K69

Q: How did the cross-linked residues [24] turn out when PHF5A, Q7RTV0 was run?
A: K13 - K17 and K95 - K17

Q: How did the cross-linked residues [28] turn out when SMC2, O95347 was run?
A: K286 - K988 and K348 - K928 and K900 - K998 and K900 - K1009 and K911 - K1009 and K911 - K1017 and K930 - K1037

Q: Which cross-linked residues [29] does the source give for SNW1, Q13573 here?
A: K153 - K349 and K170 - K349

Q: For SNRPB2, P08579, which cross-linked residues [30] is on record?
A: K93 - K31 and K93 - K78 and K93 - K84

Q: Which cross-linked residues [31] does the source give for SPCS2, Q15005 here?
A: K50 - K143 and K169 - K143 and K191 - K143

Q: Which cross-linked residues [32] does the source give for SPTBN1, Q01082 here?
A: K292 - K2404 and K462 - K2098 and K659 - K1911 and K784 - K1698 and K853 - K1698 and K1011 - K1591 and K1156 - K1486 and K1466 - K1132 and K1485 - K930 and K1525 - K824 and K1525 - K909 and K1532 - K909 and K1632 - K718 and K1632 - K846 and K2054 - K441

Q: For SRP14, P37108, which cross-linked residues [33] is on record?
A: K55 - K76 and K74 - K76 and K78 - K76 and K95 - K60

Q: With HSP90AB1, P08238 as the substance, how does the cross-linked residues [34] read?
A: K435 - K486 and K435 - K513 and K491 - K337 and K624 - K446 and K624 - K486

Q: How did the cross-linked residues [35] turn out when THOC2, Q8NI27 was run?
A: K970 - K528 and K1062 - K133

Q: For BCLAF1, Q9NYF8, which cross-linked residues [36] is on record?
A: K599 - K558 and K599 - K602

Q: For TMED9, Q9BVK6, which cross-linked residues [37] is on record?
A: K160 - K141 and K160 - K164

Q: For XRCC6, P12956, which cross-linked residues [38] is on record?
A: K114 - K325 and K189 - K603 and K317 - K282 and K570 - K195 and K570 - K469

Q: Which cross-linked residues [39] does the source give for YWHAB, P31946 here?
A: K11 - K85 and K87 - K9

Q: How did the cross-linked residues [39] turn out when YWHAQ, P27348 was run?
A: K9 - K85 and K85 - K9
